# Experimental data published in the supplement of paper PMC8728848.
# The list shows a part of the results.
# B1: PX9961T-pdi-555-33-555 (Parabacteroides distasonis) (protein)
# chain: FDEETAFQSPTLVYVNTVASLYNNMFKIMGNDRHVYDLNTFSSDEAMLPCRIGDWEDGGLWQNIFLHRWGTMNDLTKNSWDFLYEQIGKCNQSVDKLQAFAEEQPDVEYFKVYLEEVRAVRAFFYYELLDLFARVPLVTSSTTPMSEVKQSERSVVFNFVRSELEEALPYLSDNRSNQKGEYYGRITKPVAYMILAKLALNAEVYADDNWTDGNRPAGKNIKFTVDGKEMNAWEATIAYVDKLEALGYKLQGNFSENFAVANETSVENIFTVPMDPVAYPDAKDYNLVRTRHYDHATAYGQSGWNGSCATVKAMNVFKFGTADEDPRCKLTYFTGEVTGPDGKTIYTEWDGQKVPLKYEPNAPKVYMDASDGLLVKTAGARMAKYEFDQNAQDGGNLHGNDCVIFRFADALLMKAEAKIRLGQNGDDEVNQVRNRVGAKPLQNVTLDTLLDERMLELAWEGVRRQDLIRFGKFTEATVDRYVGVKHFASSLDYQEDKTGYTTVFSIYADILSLNPNLTQNPGY
# Tests used:
# Assay in all cases: glycan array binding signal (z-score within array); higher = stronger binding
# Conditions in all cases: glycan notation: IUPAC condensed, linker removed
# [1] = molecular target: GlcNAc(a1-4)Gal(b1-3)GlcNAc
# How it was run: (§1)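 The binding signal is a Z-score computed within each array. Data were drawn from 3228 arrays in the Consortium for Functional Glycomics database, restricted to those with a known protein sequence. Scores were averaged over arrays of the same protein sequence at different concentrations or buffers, and over linkers, and negative values can be taken as non-binding.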
# [2] = molecular target: GlcNAc(a1-4)Gal(b1-4)GalNAc
# How it was run: as §1
# [3] = molecular target: GlcNAc(a1-4)Gal(b1-4)GlcNAc
# How it was run: as §1
# [4] = molecular target: GlcNAc(a1-4)Gal(b1-4)GlcNAc(b1-3)Gal(b1-4)Glc
# How it was run: as §1
# [5] = molecular target: GlcNAc(a1-4)Gal(b1-4)GlcNAc(b1-3)Gal(b1-4)GlcNAc
# How it was run: as §1
# [6] = molecular target: GlcNAc(a1-4)Gal(b1-4)GlcNAc(b1-3)Gal(b1-4)GlcNAc(b1-3)Gal(b1-4)GlcNAc
# How it was run: as §1
# [7] = molecular target: GlcNAc(a1-4)Gal(b1-4)GlcNAc(b1-3)Gal(b1-4)[Fuc(a1-3)]GlcNAc(b1-3)Gal(b1-4)[Fuc(a1-3)]GlcNAc
# How it was run: as §1
# [8] = molecular target: GlcNAc(a1-6)Gal(b1-4)GlcNAc
# How it was run: as §1
# [9] = molecular target: GlcNAc(b1-2)Gal(b1-3)GalNAc
# How it was run: as §1
# [10] = molecular target: GlcNAc(b1-2)Man(a1-3)[GlcNAc(b1-2)Man(a1-6)]Man(b1-4)GlcNAc(b1-4)GlcNAc
# How it was run: as §1
# [11] = molecular target: GlcNAc(b1-2)Man(a1-3)[GlcNAc(b1-2)Man(a1-6)]Man(b1-4)GlcNAc(b1-4)[Fuc(a1-6)]GlcNAc
# How it was run: as §1
# [12] = molecular target: GlcNAc(b1-2)Man(a1-3)[GlcNAc(b1-4)][GlcNAc(b1-2)Man(a1-6)]Man(b1-4)GlcNAc(b1-4)GlcNAc
# How it was run: as §1
# [13] = molecular target: GlcNAc(b1-2)Man(a1-3)[GlcNAc(b1-4)][GlcNAc(b1-2)Man(a1-6)]Man(b1-4)GlcNAc(b1-4)[Fuc(a1-6)]GlcNAc
# How it was run: as §1
# [14] = molecular target: GlcNAc(b1-2)[GlcNAc(b1-4)]Man(a1-3)[GlcNAc(b1-2)Man(a1-6)]Man(b1-4)GlcNAc(b1-4)GlcNAc
# How it was run: as §1
# [15] = molecular target: GlcNAc(b1-2)[GlcNAc(b1-4)]Man(a1-3)[GlcNAc(b1-4)][GlcNAc(b1-2)Man(a1-6)]Man(b1-4)GlcNAc(b1-4)GlcNAc
# How it was run: as §1
# [16] = molecular target: GlcNAc(b1-2)[GlcNAc(b1-4)]Man(a1-3)[GlcNAc(b1-4)][GlcNAc(b1-2)[GlcNAc(b1-6)]Man(a1-6)]Man(b1-4)GlcNAc(b1-4)GlcNAc
# How it was run: as §1
# [17] = molecular target: GlcNAc(b1-2)[GlcNAc(b1-4)]Man(a1-3)[GlcNAc(b1-4)][GlcNAc(b1-2)[GlcNAc(b1-6)]Man(a1-6)]Man(b1-4)GlcNAc(b1-4)[Fuc(a1-6)]GlcNAc
# How it was run: as §1
# [18] = molecular target: GlcNAc(b1-2)[GlcNAc(b1-6)]Man(a1-6)[GlcNAc(b1-2)Man(a1-3)]Man(b1-4)GlcNAc(b1-4)GlcNAc
# How it was run: as §1
# [19] = molecular target: GlcNAc(b1-2)[GlcNAc(b1-6)]Man(a1-6)[GlcNAc(b1-2)Man(a1-3)]Man(b1-4)GlcNAc(b1-4)[Fuc(a1-6)]GlcNAc
# How it was run: as §1
# [20] = molecular target: GlcNAc(b1-2)[GlcNAc(b1-6)]Man(a1-6)[GlcNAc(b1-4)][GlcNAc(b1-2)Man(a1-3)]Man(b1-4)GlcNAc(b1-4)GlcNAc
# How it was run: as §1
# GlcNAc(b1-3)Fuc = molecular target: GlcNAc(b1-3)Fuc
# How it was run: as §1
# GlcNAc(b1-3)Gal = molecular target: GlcNAc(b1-3)Gal
# How it was run: as §1
# [21] = molecular target: GlcNAc(b1-3)Gal(b1-3)GalNAc
# How it was run: as §1
# GlcNAc(b1-3)Gal(b1-4)Glc = molecular target: GlcNAc(b1-3)Gal(b1-4)Glc
# How it was run: as §1
# [22] = molecular target: GlcNAc(b1-3)Gal(b1-4)GlcNAc
# How it was run: as §1
# [23] = molecular target: GlcNAc(b1-3)Gal(b1-4)GlcNAc(b1-2)Man(a1-3)[GlcNAc(b1-3)Gal(b1-4)GlcNAc(b1-2)Man(a1-6)]Man(b1-4)GlcNAc(b1-4)GlcNAc
# How it was run: as §1
# [24] = molecular target: GlcNAc(b1-3)Gal(b1-4)GlcNAc(b1-2)Man(a1-3)[GlcNAc(b1-3)Gal(b1-4)GlcNAc(b1-2)Man(a1-6)]Man(b1-4)GlcNAc(b1-4)[Fuc(a1-6)]GlcNAc
# How it was run: as §1
# [25] = molecular target: GlcNAc(b1-3)Gal(b1-4)GlcNAc(b1-2)[GlcNAc(b1-3)Gal(b1-4)GlcNAc(b1-6)]Man(a1-6)[GlcNAc(b1-3)Gal(b1-4)GlcNAc(b1-2)Man(a1-3)]Man(b1-4)GlcNAc(b1-4)GlcNAc
# How it was run: as §1
# [26] = molecular target: GlcNAc(b1-3)Gal(b1-4)GlcNAc(b1-3)Gal(b1-4)GlcNAc
# How it was run: as §1
# [27] = molecular target: GlcNAc(b1-3)Gal(b1-4)GlcNAc(b1-3)Gal(b1-4)GlcNAc(b1-2)Man(a1-3)[GlcNAc(b1-3)Gal(b1-4)GlcNAc(b1-3)Gal(b1-4)GlcNAc(b1-2)Man(a1-6)]Man(b1-4)GlcNAc(b1-4)GlcNAc
# How it was run: as §1
# [28] = molecular target: GlcNAc(b1-3)Gal(b1-4)GlcNAc(b1-3)Gal(b1-4)GlcNAc(b1-2)Man(a1-3)[GlcNAc(b1-3)Gal(b1-4)GlcNAc(b1-3)Gal(b1-4)GlcNAc(b1-2)Man(a1-6)]Man(b1-4)GlcNAc(b1-4)[Fuc(a1-6)]GlcNAc
# How it was run: as §1
# [29] = molecular target: GlcNAc(b1-3)Gal(b1-4)GlcNAc(b1-3)Gal(b1-4)GlcNAc(b1-2)[GlcNAc(b1-3)Gal(b1-4)GlcNAc(b1-3)Gal(b1-4)GlcNAc(b1-6)]Man(a1-6)[GlcNAc(b1-3)Gal(b1-4)GlcNAc(b1-3)Gal(b1-4)GlcNAc(b1-2)Man(a1-3)]Man(b1-4)GlcNAc(b1-4)[Fuc(a1-6)]GlcNAc
# How it was run: as §1
# [30] = molecular target: GlcNAc(b1-3)Gal(b1-4)GlcNAc(b1-3)Gal(b1-4)GlcNAc(b1-3)Gal(b1-4)GlcNAc(b1-2)Man(a1-3)[GlcNAc(b1-3)Gal(b1-4)GlcNAc(b1-3)Gal(b1-4)GlcNAc(b1-3)Gal(b1-4)GlcNAc(b1-2)Man(a1-6)]Man(b1-4)GlcNAc(b1-4)GlcNAc
# How it was run: as §1
# [31] = molecular target: GlcNAc(b1-3)Gal(b1-4)GlcNAc(b1-3)Gal(b1-4)GlcNAc(b1-3)Gal(b1-4)GlcNAc(b1-2)Man(a1-3)[GlcNAc(b1-3)Gal(b1-4)GlcNAc(b1-3)Gal(b1-4)GlcNAc(b1-3)Gal(b1-4)GlcNAc(b1-2)Man(a1-6)]Man(b1-4)GlcNAc(b1-4)[Fuc(a1-6)]GlcNAc
# How it was run: as §1
# [32] = molecular target: GlcNAc(b1-3)Gal(b1-4)GlcNAc(b1-3)Gal(b1-4)GlcNAc(b1-3)Gal(b1-4)GlcNAc(b1-2)[GlcNAc(b1-3)Gal(b1-4)GlcNAc(b1-3)Gal(b1-4)GlcNAc(b1-3)Gal(b1-4)GlcNAc(b1-6)]Man(a1-6)[GlcNAc(b1-3)Gal(b1-4)GlcNAc(b1-3)Gal(b1-4)GlcNAc(b1-3)Gal(b1-4)GlcNAc(b1-2)Man(a1-3)]Man(b1-4)GlcNAc(b1-4)[Fuc(a1-6)]GlcNAc
# How it was run: as §1
# [33] = molecular target: GlcNAc(b1-3)Gal(b1-4)GlcNAc(b1-3)Gal(b1-4)GlcNAc(b1-3)Gal(b1-4)GlcNAc(b1-3)Gal(b1-4)GlcNAc(b1-2)Man(a1-3)[GlcNAc(b1-3)Gal(b1-4)GlcNAc(b1-3)Gal(b1-4)GlcNAc(b1-3)Gal(b1-4)GlcNAc(b1-3)Gal(b1-4)GlcNAc(b1-2)Man(a1-6)]Man(b1-4)GlcNAc(b1-4)GlcNAc
# How it was run: as §1
# [34] = molecular target: GlcNAc(b1-3)Gal(b1-4)GlcNAc(b1-3)Gal(b1-4)GlcNAc(b1-3)Gal(b1-4)GlcNAc(b1-3)Gal(b1-4)GlcNAc(b1-2)Man(a1-3)[GlcNAc(b1-3)Gal(b1-4)GlcNAc(b1-3)Gal(b1-4)GlcNAc(b1-3)Gal(b1-4)GlcNAc(b1-3)Gal(b1-4)GlcNAc(b1-2)Man(a1-6)]Man(b1-4)GlcNAc(b1-4)[Fuc(a1-6)]GlcNAc
# How it was run: as §1
# [35] = molecular target: GlcNAc(b1-3)Gal(b1-4)GlcNAc(b1-3)Gal(b1-4)GlcNAc(b1-3)Gal(b1-4)GlcNAc(b1-3)Gal(b1-4)GlcNAc(b1-2)[GlcNAc(b1-3)Gal(b1-4)GlcNAc(b1-3)Gal(b1-4)GlcNAc(b1-3)Gal(b1-4)GlcNAc(b1-3)Gal(b1-4)GlcNAc(b1-6)]Man(a1-6)[GlcNAc(b1-3)Gal(b1-4)GlcNAc(b1-3)Gal(b1-4)GlcNAc(b1-3)Gal(b1-4)GlcNAc(b1-3)Gal(b1-4)GlcNAc(b1-2)Man(a1-3)]Man(b1-4)GlcNAc(b1-4)[Fuc(a1-6)]GlcNAc
# How it was run: as §1
binder,measurement,setting,value
B1,glycan array binding signal (z-score),[1],0.039
same,glycan array binding signal (z-score),[2],-0.4
same,glycan array binding signal (z-score),[3],-0.388
same,glycan array binding signal (z-score),[4],-0.405
same,glycan array binding signal (z-score),[5],-0.402
same,glycan array binding signal (z-score),[6],-0.266
same,glycan array binding signal (z-score),[7],0.776
same,glycan array binding signal (z-score),[8],-0.246
same,glycan array binding signal (z-score),[9],0.188
same,glycan array binding signal (z-score),[10],-0.255
same,glycan array binding signal (z-score),[11],0.514
same,glycan array binding signal (z-score),[12],-0.416
same,glycan array binding signal (z-score),[13],-0.375
same,glycan array binding signal (z-score),[14],0.085
same,glycan array binding signal (z-score),[15],-0.029
same,glycan array binding signal (z-score),[16],-0.347
same,glycan array binding signal (z-score),[17],-0.051
same,glycan array binding signal (z-score),[18],-0.282
same,glycan array binding signal (z-score),[19],0.633
same,glycan array binding signal (z-score),[20],-0.004
same,glycan array binding signal (z-score),GlcNAc(b1-3)Fuc,-0.704
same,glycan array binding signal (z-score),GlcNAc(b1-3)Gal,-0.188
same,glycan array binding signal (z-score),[21],0.567
same,glycan array binding signal (z-score),GlcNAc(b1-3)Gal(b1-4)Glc,-0.25
same,glycan array binding signal (z-score),[22],0.103
same,glycan array binding signal (z-score),[23],-0.045
same,glycan array binding signal (z-score),[24],1.18
same,glycan array binding signal (z-score),[25],0.276
same,glycan array binding signal (z-score),[26],-0.139
same,glycan array binding signal (z-score),[27],1.51
same,glycan array binding signal (z-score),[28],0.65
same,glycan array binding signal (z-score),[29],-0.298
same,glycan array binding signal (z-score),[30],-0.569
same,glycan array binding signal (z-score),[31],0.022
same,glycan array binding signal (z-score),[32],-0.474
same,glycan array binding signal (z-score),[33],-0.198
same,glycan array binding signal (z-score),[34],0.229
same,glycan array binding signal (z-score),[35],-0.523
